{"source": "paper PMC7819943", "about": "“Rice protein-binding microarrays: a tool to detect cis-acting elements near promoter regions in rice”", "note": "The list shows a part of the results.", "data": [{"target": "T1, OsWOX13 (Oryza sativa, UniProt Q5QMM3 1-267)", "T1 sequence": "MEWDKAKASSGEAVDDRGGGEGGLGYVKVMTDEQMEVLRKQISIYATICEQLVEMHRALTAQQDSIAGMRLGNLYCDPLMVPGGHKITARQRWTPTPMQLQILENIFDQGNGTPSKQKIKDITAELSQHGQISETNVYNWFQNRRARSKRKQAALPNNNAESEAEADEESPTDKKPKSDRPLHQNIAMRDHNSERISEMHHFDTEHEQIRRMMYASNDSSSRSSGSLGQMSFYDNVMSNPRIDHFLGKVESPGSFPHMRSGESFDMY", "experiment": "protein-binding microarray (RPBM); PBS, 2% BSA, 51.3 ng/ul salmon testes DNA, 50 uM zinc acetate, 200 nM TF, 25 C, 1 h; high values mean tight binding", "settings": "protein: recombinant; tags: N-terminal polyhistidine and DsRed monomer fusion (pET32a); label: CyDye5-dUTP incorporated in the synthesized complementary strand; 3' TTTTT single-stranded linker to array surface; dsDNA, one strand shown", "procedure,_shortened": "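For the binding signal, per-feature fluorescence intensity was read in arbitrary units on an Axon 4000B scanner. Before scanning, a 2% BSA-blocked custom Agilent array made double-stranded with Cy5-dUTP was washed after 1 h at 25 °C with 200 nM protein and 50 µM zinc acetate. The proteins were Ni–NTA-purified transcription factors with N-terminal polyhistidine and DsRed fusions, expressed in E. coli BL21-CodonPlus.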", "values": [{"sequence": "TAGGGCTGATTTGGTTTGATGCACTACCAAACCATTGGTACGGAGTCACCTAGTGCAG", "binding signal": "5460 fluorescence intensity (a.u.)"}, {"sequence": "GTAAATTTCATAAAATCCCACGTATTATGATTCAAATTGCCGGAGTCACCTAGTGCAG", "binding signal": "3430 fluorescence intensity (a.u.)"}, {"sequence": "TGGTAAATTGTAAAATGATTATTGTTGCTGATCTCTAACTCGGAGTCACCTAGTGCAG", "binding signal": "35300 fluorescence intensity (a.u.)"}, {"sequence": "GTATGATGGACCAGCAAATCTATATATCGATCATCTGCAGCGGAGTCACCTAGTGCAG", "binding signal": "7870 fluorescence intensity (a.u.)"}, {"sequence": "GAATCAATTGAAATTTGAATTAAGACGGGGTTTTATGAAACGGAGTCACCTAGTGCAG", "binding signal": "8460 fluorescence intensity (a.u.)"}, {"sequence": "AGCTGTTTAATTATTTACTCAGACTCACGGTCACAGTCACCGGAGTCACCTAGTGCAG", "binding signal": "12500 fluorescence intensity (a.u.)"}, {"sequence": "CATTAATTTGTTGCACTTTAGACCACTTCAAACCACTTTCCGGAGTCACCTAGTGCAG", "binding signal": "21900 fluorescence intensity (a.u.)"}, {"sequence": "TAGATTATTATTATTATTATTGCAATGTCACAACTGAAGACGGAGTCACCTAGTGCAG", "binding signal": "5320 fluorescence intensity (a.u.)"}, {"sequence": "GCACGAAACATAGTAATTAATTAGCTATAAGTAGTAGAAGCGGAGTCACCTAGTGCAG", "binding signal": "10700 fluorescence intensity (a.u.)"}, {"sequence": "ATAGGTGGTTGATTTATTTTGCGTAGGAGAGAGTACGTTGCGGAGTCACCTAGTGCAG", "binding signal": "3800 fluorescence intensity (a.u.)"}, {"sequence": "ACTGAATTAACGTGTAACCGCACCAACCCTGGAGGACTACCGGAGTCACCTAGTGCAG", "binding signal": "3580 fluorescence intensity (a.u.)"}, {"sequence": "CACTGTAATTAATTATTTGTTTAGCCTATATTCAATACTTCGGAGTCACCTAGTGCAG", "binding signal": "46700 fluorescence intensity (a.u.)"}, {"sequence": "GATAATTAAACTAATCTCCAGATTATTTCTCATCCAAGCCCGGAGTCACCTAGTGCAG", "binding signal": "34700 fluorescence intensity (a.u.)"}, {"sequence": "GCAACATTTAAAACACTAAATTAGTTTTATTGGTATAGTACGGAGTCACCTAGTGCAG", "binding signal": "3620 fluorescence intensity (a.u.)"}, {"sequence": "TATTTAATATCAAATTTAATGAAATTATTTAATTTGGTATCGGAGTCACCTAGTGCAG", "binding signal": "13200 fluorescence intensity (a.u.)"}, {"sequence": "CTTATTAACATTTAATTTGGTTTCTTCCTTAATTTGTATCCGGAGTCACCTAGTGCAG", "binding signal": "12600 fluorescence intensity (a.u.)"}, {"sequence": "ATGTTGACAGACAAAATGACATAACATCCAGAATAAAGAACGGAGTCACCTAGTGCAG", "binding signal": "11300 fluorescence intensity (a.u.)"}, {"sequence": "CACACCAAATTAAATACTCTATCTGTTAGTGAGATCCCAACGGAGTCACCTAGTGCAG", "binding signal": "3880 fluorescence intensity (a.u.)"}, {"sequence": "ACTAGGGTCCTATTTAATTTGTAATCAAAACATTCGAATTCGGAGTCACCTAGTGCAG", "binding signal": "3570 fluorescence intensity (a.u.)"}, {"sequence": "TTCCTGATTTTGTGGTTCTAGACCACCTCTGGCTTGCAGCCGGAGTCACCTAGTGCAG", "binding signal": "3470 fluorescence intensity (a.u.)"}, {"sequence": "TTTGTGATGATTTATTAATACCTGAAACTCAATTAGGTTCCGGAGTCACCTAGTGCAG", "binding signal": "27200 fluorescence intensity (a.u.)"}, {"sequence": "GTATCTGGCCCATCAATCCATCACGCTCTTACGGCCCAGACGGAGTCACCTAGTGCAG", "binding signal": "5350 fluorescence intensity (a.u.)"}, {"sequence": "TGTTATTTCAGTTATTGATTTCGATTACTCTAGGCCGCAACGGAGTCACCTAGTGCAG", "binding signal": "9300 fluorescence intensity (a.u.)"}, {"sequence": "AATACTAATTATGCATGGTAGTGCAATGTTTGTACTCCACCGGAGTCACCTAGTGCAG", "binding signal": "16900 fluorescence intensity (a.u.)"}, {"sequence": "AATAAATGGAGTAAACTTTAGAAATGAATCTGAATACACGCGGAGTCACCTAGTGCAG", "binding signal": "4550 fluorescence intensity (a.u.)"}, {"sequence": "TTTCGTAATCACAATCTTATATGATATTGTCTCCATCCTACGGAGTCACCTAGTGCAG", "binding signal": "9400 fluorescence intensity (a.u.)"}, {"sequence": "CCATTGACAGGTGGGCCCACCCCATCTTTAGCAGTTAATTCGGAGTCACCTAGTGCAG", "binding signal": "3940 fluorescence intensity (a.u.)"}, {"sequence": "AAGTCATGGATGATTGACACGAGAAAATCATCTAATGTCGCGGAGTCACCTAGTGCAG", "binding signal": "43800 fluorescence intensity (a.u.)"}, {"sequence": "ATAAATGATTAAAATTACCTTTACCCGTTGCAACGCACGGCGGAGTCACCTAGTGCAG", "binding signal": "42400 fluorescence intensity (a.u.)"}, {"sequence": "GTTATTGATTTCTATATAATACATTGGAGTTTCAAAACTACGGAGTCACCTAGTGCAG", "binding signal": "12400 fluorescence intensity (a.u.)"}, {"sequence": "TATGATATATTATAATACTATACAGATTTGTGGGGTTAGACGGAGTCACCTAGTGCAG", "binding signal": "4130 fluorescence intensity (a.u.)"}, {"sequence": "ATATTTATTTAAATTAGACTAAATTTTGTTCAAAATTTTGCGGAGTCACCTAGTGCAG", "binding signal": "13200 fluorescence intensity (a.u.)"}, {"sequence": "ACAGTGTAATTACACTATGATTGTACTGTAATTACATTTGCGGAGTCACCTAGTGCAG", "binding signal": "44000 fluorescence intensity (a.u.)"}, {"sequence": "TTTTGATGGAAATTTTAATAGTCAACTCATGGTCAACTAACGGAGTCACCTAGTGCAG", "binding signal": "15000 fluorescence intensity (a.u.)"}, {"sequence": "AGCAGCTAACATTAATTAACCGGCCGGAATATATATATTGCGGAGTCACCTAGTGCAG", "binding signal": "4840 fluorescence intensity (a.u.)"}, {"sequence": "AACTCCATCACATCCTTAATTTGCAGCAGCAGGTAATTGTCGGAGTCACCTAGTGCAG", "binding signal": "13400 fluorescence intensity (a.u.)"}, {"sequence": "ATTTTAGTTTAATTCAATTAAATTGTGTTAAAATTTCATACGGAGTCACCTAGTGCAG", "binding signal": "5620 fluorescence intensity (a.u.)"}, {"sequence": "TTACAAACGAGAGTTTAATTGGTATTTTAGTCTTCTGCACCGGAGTCACCTAGTGCAG", "binding signal": "9020 fluorescence intensity (a.u.)"}, {"sequence": "AAATTAATTAAGCAGCTTCTTCCATTCAGACATAGGTCGACGGAGTCACCTAGTGCAG", "binding signal": "16200 fluorescence intensity (a.u.)"}, {"sequence": "TTGGTGTTAAATTTATAGTTATGTTATACACTGTCTTGAACGGAGTCACCTAGTGCAG", "binding signal": "4760 fluorescence intensity (a.u.)"}, {"sequence": "TTAATTACACAGTTTGCATATAAATTACGAGACGAATATTCGGAGTCACCTAGTGCAG", "binding signal": "8430 fluorescence intensity (a.u.)"}, {"sequence": "CATTGTTGATTGAAAATTTACCAGGAGATAACAAAACATTCGGAGTCACCTAGTGCAG", "binding signal": "29900 fluorescence intensity (a.u.)"}, {"sequence": "ACGTCTATCCACCAATTAATTAATAAATATACTCCAATATCGGAGTCACCTAGTGCAG", "binding signal": "17300 fluorescence intensity (a.u.)"}, {"sequence": "CCAATTTCAATCAAATTTTCAATTTTAACGCGAACTAGACCGGAGTCACCTAGTGCAG", "binding signal": "19700 fluorescence intensity (a.u.)"}, {"sequence": "AAAACTCAATTAATCACATATTATTACCACATCGTTTTGCCGGAGTCACCTAGTGCAG", "binding signal": "18000 fluorescence intensity (a.u.)"}, {"sequence": "ATTAATTATTTATTTCTTATATTACAGATTTTCAGTATATCGGAGTCACCTAGTGCAG", "binding signal": "18600 fluorescence intensity (a.u.)"}, {"sequence": "AGTTAATTAATTTTGTATGCATTGACTTGCTTATATATATCGGAGTCACCTAGTGCAG", "binding signal": "29900 fluorescence intensity (a.u.)"}, {"sequence": "TCTGATTTATCACATATTTTCACACGTGCGAAGCATGCCGCGGAGTCACCTAGTGCAG", "binding signal": "22600 fluorescence intensity (a.u.)"}, {"sequence": "TTGAAAATTGGCTATTCCTTTATATGCCATTGATCCAAATCGGAGTCACCTAGTGCAG", "binding signal": "4790 fluorescence intensity (a.u.)"}, {"sequence": "TTAATTAGGCTCAAAAGATTTGTCTCGTGGTTTCTAGACGCGGAGTCACCTAGTGCAG", "binding signal": "4610 fluorescence intensity (a.u.)"}, {"sequence": "AAATTAGACGGATAATTAAAGTTAGGCACAGAAACTCGTACGGAGTCACCTAGTGCAG", "binding signal": "18100 fluorescence intensity (a.u.)"}, {"sequence": "ATAAATTTAAGTGCATTTTGGTTGACGTACTGACGTGTTTCGGAGTCACCTAGTGCAG", "binding signal": "7190 fluorescence intensity (a.u.)"}, {"sequence": "CGCGGGAATGATCGCTAATAAATCAGCATAATTTGCTAGTCGGAGTCACCTAGTGCAG", "binding signal": "6190 fluorescence intensity (a.u.)"}, {"sequence": "AGAAATTATGTATAACTGTAAGGTCTGGTTAGTGTTACAACGGAGTCACCTAGTGCAG", "binding signal": "6200 fluorescence intensity (a.u.)"}]}]}
